# According to PubChem BioAssay (NCI):
#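 Cells were grown in 96-well plates and exposed to each compound for 48 hours at five concentrations; endpoints were interpolated linearly between bracketing concentrations, or set to the highest concentration if not reached. Abbreviation: GI50, concentration required for 50% inhibition of growth. TGI: total growth inhibition.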
# Test system: NCI-H322M lung
# Assay: growth of human tumour cells (NCI), 48 h
SMILES,GI50,TGI
O=S(=O)(NCCCNc1nccc(-c2c(-c3ccc(F)cc3)nc3sccn23)n1)c1ccc2ccccc2c1,> 100 µM,> 100 µM
COc1ccc(OC)c(Cn2cc3c(c2-c2ccccc2)CCc2cnoc2-3)c1,8.43 µM,> 100 µM
O=[N+]([O-])c1ccc(-c2ccc(-c3csc(Nc4ccccc4)n3)o2)cc1,–,> 100 µM
C#CCN(Cc1ccc2nc(OC)c(OC)nc2c1)c1cc(OC)c(OC)c(OC)c1,–,> 100 µM
CCOP(=O)(/C=C\n1ccc(N)nc1=O)OCC,–,> 100 µM
[O-]/[N+](=C\c1ccccc1OC(=S)S)c1ccc(Cl)cc1,–,> 100 µM
CCOC(=O)C#Cc1ccccc1,–,36.3 µM
C/C(=N\NC(=O)CC#N)c1c(O)cc(C)oc1=O,–,> 100 µM
C[C@H]1CCCC(O)C(O)[C@@H]2C[C@H](O[Si](C)(C)C(C)(C)C)C[C@H]2[C@H](O[Si](C)(C)C(C)(C)C)C(O)C(O)C(=O)O1 (some centres not stated),22.2 µM,> 100 µM
CSc1nnc(COc2ccc(Cl)cc2)o1,–,> 100 µM
CC(=O)N1CCC2(c3ccccc3N(C(C)=O)C2c2ccc(O)cc2)C1C(=O)O (configuration not stated),–,> 100 µM
CC(=O)c1ccc2c(c1)CC1(C2)Cc2ccccc2C1=O (configuration not stated),–,> 100 µM
C=C(C)C1C/C=C(/C)CCCC2(CCC3=C(CC(C(=C)C)C/C=C(/C)CCC3)O2)C(=O)C1 (configuration not stated),–,> 100 µM
N/N=C1\C(=O)N(CCc2ccccc2)C(=O)C1C(=O)NCCc1ccccc1 (configuration not stated),–,> 100 µM
c1ccc2[nH]c(-c3ccc(Nc4nc(N5CCCCC5)nc(N5CCOCC5)n4)cc3)nc2c1,4.72 µM,> 100 µM
CC(=O)c1ccc(O)c(CN(C2CCCCC2)C2CCCCC2)c1O,–,> 100 µM
N#Cc1nc(NC(=O)c2ccccc2C(=O)O)c(C#N)[nH]1,–,> 100 µM
COc1cc2ccc1OCc1cccc(n1)COc1ccc(cc1OC)C=Nc1ccc(cc1)N=C2,–,> 100 µM
CC(C)CCC1(CCN)C(=O)NC(=O)NC1=O,–,> 100 µM
CN(C)CCNC(=O)c1cccc2nc(-c3ccccc3)oc12,–,> 100 µM

SMILES,GI50,TGI
O=c1c2cc(Br)ccc2nc(CCl)n1-c1ccc(O)c([N+](=O)[O-])c1,–,30.3 µM
CCOC(=O)/C=C(\C(=O)OCC)n1ccc(=O)n(Cc2cn(COCCOC(C)=O)nn2)c1=O,–,> 100 µM
C/C(=N/NC(=O)C[N+](C)(C)C)C(CN(C)C)C(=O)Nc1ccccc1 (configuration not stated),–,> 100 µM
CCCCN(CCCC)C(=O)/C(CC(=O)c1cccc2ccccc12)=N\NC(=O)c1cc2ccccc2cc1O,–,> 100 µM
Cc1ccc(C2=CC(=O)/C(=C\C(=O)c3ccc(Cl)cc3)O2)cc1,–,> 100 µM
Oc1[nH]c2ccccc2c1N=NC(=S)Nc1ccc(Cl)cc1,–,> 100 µM
COC(=O)C1(C(=O)OC)CC(=O)c2cc3c(cc2-c2c(cc(OC)c(OC)c2OC)C1)OCO3,–,> 211 µM
Oc1ccccc1-c1nn(CNc2ccccc2Cl)c(=S)o1,> 100 µM,> 100 µM
N#Cc1nc(C2CCC2)oc1N,–,> 100 µM
COC1CC(OC2CCC3(C)C(=CCC4C3C(OC(C)=O)C(OC(=O)CC(C)C)C3(C)C(C(C)=O)CCC43O)C2)OC(C)C1OC1CC(OC)C(OC2CC(OC)C(OC3OC(C)C(OC4OC(CO)C(O)C(O)C4O)C(OC)C3O)C(C)O2)C(C)O1 (configuration not stated),–,> 75 µM
CC1(C)[C@H]2CC[C@@]13C(=O)N1C(=O)O[C@@H]([C@H]1Cl)C(Cl)(COCc1ccccc1)C(=O)OCCO[C@H]3C2 (some centres not stated),–,> 100 µM
O=c1cc(/C=C/c2ccccc2)[nH]c2cc3c(cc12)OCO3,–,25.5 µM
CSC(=NCCc1c[nH]c2ccccc12)NC#N,–,> 100 µM
O=c1[nH]nc(Cc2ccccc2)n1/N=C/c1ccncc1,–,> 100 µM
CCCCCCCCCCCCCCCC[N+]1(C)CCOCC1,4.53 µM,19 µM
O=C(N/N=C/c1ccccc1O)c1ccccc1,1.77 µM,> 100 µM
O=C(N[C@@H](C[Se][Se]C[C@H](NC(=O)c1ccc(Br)cc1F)C(=O)O)C(=O)O)c1ccc(Br)cc1F,> 100 µM,> 100 µM
Nc1nn2c(=O)c3ccccc3nc2s1,–,> 100 µM
CCOC(=O)C(NC(=O)c1nc[nH]c1[N+](=O)[O-])C(C)C (configuration not stated),–,> 100 µM
